Over roughly 33,000 sequences, “E-score (-0.5 to 0.5)” has its median near -0.017; the highest 2% begin near 0.3. Some of the results follow.
Target: T1, Sut1 (UniProt P53032)
T1 sequence: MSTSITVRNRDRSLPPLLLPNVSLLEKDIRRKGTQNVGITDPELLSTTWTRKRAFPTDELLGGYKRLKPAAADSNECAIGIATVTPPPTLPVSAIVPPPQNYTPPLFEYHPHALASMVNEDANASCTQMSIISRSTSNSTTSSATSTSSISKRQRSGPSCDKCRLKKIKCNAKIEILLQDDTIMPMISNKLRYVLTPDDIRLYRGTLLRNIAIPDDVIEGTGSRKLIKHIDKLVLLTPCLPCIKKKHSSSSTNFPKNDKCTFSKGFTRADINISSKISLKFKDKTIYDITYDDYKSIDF
Test: PBM E-score (8-mer binding enrichment) (E-score (-0.5 to 0.5)); higher = stronger / more preferred TF binding; most listed sequences are background and not binding sites
Settings: protein concentration: 200 nM; construct: GST-full length
Method in brief: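 Yeast transcription factors carrying a GST tag, as full-length proteins or DNA-binding domains, were produced by PURExpress in vitro transcription/translation. About 100-200 nM protein was applied to universal all-10-mer Agilent arrays, double-stranded by primer extension on fresh or once-stripped slides. Bound protein was detected with fluorescent anti-GST, and scans were normalised with masliner. The Universal PBM Analysis Suite gave each ungapped eight-base word, pooled with its reverse complement, an E-score, a modified Wilcoxon-Mann-Whitney statistic.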

Q: Which “PBM E-score” value does the source give for CGCCCCCA here?
A: -0.206

Q: How did the “PBM E-score” value turn out when AACGCGGA was run?
A: 0.297

Q: With GGAGCCAA as the sequence, how does the “PBM E-score” value read?
A: -0.0454

Q: Which “PBM E-score” value does the source give for GCCGGGGA here?
A: -0.143

Q: With ATAGCATA as the sequence, how does the “PBM E-score” value read?
A: 0.0255

Q: With GCTACTAA as the sequence, how does the “PBM E-score” value read?
A: 0.0736

Q: How did the “PBM E-score” value turn out when ACCCGAAC was run?
A: 0.157

Q: ATGGTACA was tested. Which “PBM E-score” value did it give?
A: 0.0306

Q: For AGGGGTTG, which “PBM E-score” value is on record?
A: -0.166

Q: With GAAGAAGC as the sequence, how does the “PBM E-score” value read?
A: -0.0412

Q: For TGCGACAA, which “PBM E-score” value is on record?
A: -0.102

Q: With CCGCCAGG as the sequence, how does the “PBM E-score” value read?
A: -0.315

Q: For CAGTGAGC, which “PBM E-score” value is on record?
A: -0.117

Q: With TCCTCCCA as the sequence, how does the “PBM E-score” value read?
A: -0.247

Q: AGGAAGGG was tested. Which “PBM E-score” value did it give?
A: -0.157

Q: With AAAAAAAA as the sequence, how does the “PBM E-score” value read?
A: 0.228

Q: Which “PBM E-score” value does the source give for ACTGTAGC here?
A: -0.0755

Q: With AATCTTGG as the sequence, how does the “PBM E-score” value read?
A: 0.0389

Q: Which “PBM E-score” value does the source give for CGGCCGTA here?
A: -0.241

Q: With CTCTAGCA as the sequence, how does the “PBM E-score” value read?
A: -0.127

Q: How did the “PBM E-score” value turn out when TAGACCCA was run?
A: -0.211

Q: How did the “PBM E-score” value turn out when AGGTACAC was run?
A: -0.111

Q: CACCCACA was tested. Which “PBM E-score” value did it give?
A: -0.135

Q: CCACGGGA was tested. Which “PBM E-score” value did it give?
A: -0.156

Q: For GATTATCC, which “PBM E-score” value is on record?
A: 0.0469

Q: For CTCTCTAC, which “PBM E-score” value is on record?
A: -0.0806

Q: ATGGGTGA was tested. Which “PBM E-score” value did it give?
A: -0.18

Q: With CCGACACG as the sequence, how does the “PBM E-score” value read?
A: -0.155

Q: For GTTCCACA, which “PBM E-score” value is on record?
A: -0.0384

Q: Which “PBM E-score” value does the source give for CGGTCGCA here?
A: -0.218

Q: GGGCACCA was tested. Which “PBM E-score” value did it give?
A: -0.157

Q: With CACGCCGA as the sequence, how does the “PBM E-score” value read?
A: -0.0856

Q: For CAAATGGG, which “PBM E-score” value is on record?
A: -0.0928

Q: For CCAACCAG, which “PBM E-score” value is on record?
A: -0.187

Q: How did the “PBM E-score” value turn out when ATACGTAA was run?
A: 0.108

Q: With CGCAGGCA as the sequence, how does the “PBM E-score” value read?
A: -0.115

Q: How did the “PBM E-score” value turn out when CCGCTGCG was run?
A: -0.19

Q: ACTGGTTC was tested. Which “PBM E-score” value did it give?
A: 0.179

Q: How did the “PBM E-score” value turn out when ACTATTAT was run?
A: 0.222

Q: Which “PBM E-score” value does the source give for GGAGCCAC here?
A: 0.00473

Q: How did the “PBM E-score” value turn out when ATCGAGCA was run?
A: -0.0254

Q: With ATGGTCTC as the sequence, how does the “PBM E-score” value read?
A: -0.0673

Q: For AATAGATA, which “PBM E-score” value is on record?
A: 0.212

Q: With AATGTTGT as the sequence, how does the “PBM E-score” value read?
A: -0.0339

Q: For CTCGCGAG, which “PBM E-score” value is on record?
A: 0.0751

Q: For GTCACGTA, which “PBM E-score” value is on record?
A: -0.16

Q: For CGTCACGA, which “PBM E-score” value is on record?
A: -0.124

Q: For CTCTCCCC, which “PBM E-score” value is on record?
A: -0.259

Q: Which “PBM E-score” value does the source give for AGGCACTC here?
A: -0.126

Q: Which “PBM E-score” value does the source give for GCTTTTCA here?
A: 0.0469

Q: How did the “PBM E-score” value turn out when CGGCTACA was run?
A: -0.254

Q: For AGTAAGTA, which “PBM E-score” value is on record?
A: 0.225

Q: How did the “PBM E-score” value turn out when ACCCTGTC was run?
A: -0.246

Q: Which “PBM E-score” value does the source give for AATCCGGG here?
A: 0.103

Q: CGGTCCCA was tested. Which “PBM E-score” value did it give?
A: -0.13

Q: With CCGGCGAA as the sequence, how does the “PBM E-score” value read?
A: 0.215

Q: Which “PBM E-score” value does the source give for AGAACGCC here?
A: -0.0475

Q: For AATGTAAT, which “PBM E-score” value is on record?
A: 0.284

Q: Which “PBM E-score” value does the source give for CCGCGTCC here?
A: 0.124

Q: For AATGCAAA, which “PBM E-score” value is on record?
A: 0.212

Q: With GATTAACC as the sequence, how does the “PBM E-score” value read?
A: -0.1

Q: How did the “PBM E-score” value turn out when GGCATGAA was run?
A: 0.064

Q: ACACCCTG was tested. Which “PBM E-score” value did it give?
A: -0.242

Q: With CCCCCGTC as the sequence, how does the “PBM E-score” value read?
A: -0.319

Q: How did the “PBM E-score” value turn out when AATTCTCG was run?
A: 0.105

Q: For GGACGTCA, which “PBM E-score” value is on record?
A: -0.0196

Q: How did the “PBM E-score” value turn out when GGCATCTA was run?
A: -0.057

Q: For ACAAACTA, which “PBM E-score” value is on record?
A: 0.154

Q: How did the “PBM E-score” value turn out when ATTCTTAG was run?
A: -0.0704

Q: For CTGTAAAA, which “PBM E-score” value is on record?
A: 0.121

Q: For GCTACTCC, which “PBM E-score” value is on record?
A: 0.3

Q: With ACAGTATA as the sequence, how does the “PBM E-score” value read?
A: 0.102

Q: Which “PBM E-score” value does the source give for GATCTGGA here?
A: -0.0652

Q: With AGCTCGAT as the sequence, how does the “PBM E-score” value read?
A: -0.0343

Q: GAAGCTAA was tested. Which “PBM E-score” value did it give?
A: 0.0283

Q: GCTATCAA was tested. Which “PBM E-score” value did it give?
A: 0.119

Q: With GTCTACCA as the sequence, how does the “PBM E-score” value read?
A: -0.0961

Q: How did the “PBM E-score” value turn out when TGTCTCAA was run?
A: -0.115

Q: With AACAAATC as the sequence, how does the “PBM E-score” value read?
A: 0.152

Q: CGCGCGTA was tested. Which “PBM E-score” value did it give?
A: -0.046

Q: With AGGTTATG as the sequence, how does the “PBM E-score” value read?
A: 0.0915

Q: For AAAAAATA, which “PBM E-score” value is on record?
A: 0.242

Q: With CGGCGAAG as the sequence, how does the “PBM E-score” value read?
A: 0.01

Q: With GTATTGAA as the sequence, how does the “PBM E-score” value read?
A: 0.118

Q: For TATACCAA, which “PBM E-score” value is on record?
A: 0.112

Q: With AGTTCTCA as the sequence, how does the “PBM E-score” value read?
A: 0.17
